Data published in publication PMC4336329 (PLoS ONE, 2015).
Hit rate of the full screen: of about 310,000 compounds, about 2,200 (0.71%) showed an effect of 50% or more. Effects have a minus sign here. This is one part of the list.

Each compound was assayed against human ether-à-go-go-related gene (hERG) potassium channel (human, UniProt Q12809) (assay: primary screen, population patch clamp on CHO cells stably expressing hERG).
Sequence of human ether-à-go-go-related gene (hERG) potassium channel (Q12809 whole entry, looked up): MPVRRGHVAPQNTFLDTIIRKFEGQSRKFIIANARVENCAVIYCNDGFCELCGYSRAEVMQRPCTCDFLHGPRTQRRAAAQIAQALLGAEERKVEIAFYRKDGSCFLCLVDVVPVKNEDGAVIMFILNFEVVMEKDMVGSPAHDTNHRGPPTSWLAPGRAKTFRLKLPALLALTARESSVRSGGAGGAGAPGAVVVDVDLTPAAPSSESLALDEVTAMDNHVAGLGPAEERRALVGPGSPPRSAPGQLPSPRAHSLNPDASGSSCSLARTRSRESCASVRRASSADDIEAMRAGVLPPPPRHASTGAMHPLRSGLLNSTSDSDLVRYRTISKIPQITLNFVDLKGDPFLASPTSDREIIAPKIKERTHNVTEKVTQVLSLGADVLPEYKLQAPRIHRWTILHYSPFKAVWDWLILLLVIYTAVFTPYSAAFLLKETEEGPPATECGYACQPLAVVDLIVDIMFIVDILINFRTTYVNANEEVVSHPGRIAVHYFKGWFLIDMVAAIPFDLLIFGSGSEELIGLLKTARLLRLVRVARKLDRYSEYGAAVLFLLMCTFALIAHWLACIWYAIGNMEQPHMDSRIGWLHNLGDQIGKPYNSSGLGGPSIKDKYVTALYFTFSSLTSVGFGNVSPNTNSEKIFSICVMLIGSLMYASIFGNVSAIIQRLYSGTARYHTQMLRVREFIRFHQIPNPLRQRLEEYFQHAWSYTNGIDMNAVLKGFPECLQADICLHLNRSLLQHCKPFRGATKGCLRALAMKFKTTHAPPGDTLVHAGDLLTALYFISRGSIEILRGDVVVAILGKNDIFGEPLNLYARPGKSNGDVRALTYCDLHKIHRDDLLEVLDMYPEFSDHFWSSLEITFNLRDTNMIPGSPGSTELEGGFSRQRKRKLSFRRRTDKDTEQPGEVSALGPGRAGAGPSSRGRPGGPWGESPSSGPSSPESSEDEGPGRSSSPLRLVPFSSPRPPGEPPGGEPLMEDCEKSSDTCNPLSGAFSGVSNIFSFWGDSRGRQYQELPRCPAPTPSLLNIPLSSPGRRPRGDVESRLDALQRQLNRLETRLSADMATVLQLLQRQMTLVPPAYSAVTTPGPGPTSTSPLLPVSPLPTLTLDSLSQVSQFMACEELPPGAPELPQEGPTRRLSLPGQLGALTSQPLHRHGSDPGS

SMILES | hERG current change (%, negative = inhibition) at 1uM
CCCN(CCC)c1ccc(CC(=O)NC(C)Cc2ccccc2)cc1 (stereo not drawn) | 4.39%
COc1ccc(C(=O)c2c(C(F)(F)F)oc3c2C(=O)c2ccccc2C3=O)cc1 | 10%
O=C(CN(C(=O)CCC(=O)Nc1ccccn1)c1ccc2c(c1)OCCO2)NCCc1ccccc1 | 9.82%
CCNC(=O)NNC(=O)C1CC(c2cccs2)=NO1 (stereo not drawn) | 12.3%
CCOC(=O)C(=O)N1c2ccccc2C(N(C(=O)C(=O)OCC)c2ccccc2)CC1C (stereo not drawn) | 13.8%
CNC(=O)CSc1nnc(-c2ccco2)n1-c1cc(C)ccc1C | 6.45%
COC(=O)Cc1ccc(NC(=S)NC(C)(C)C)cc1 | 14.3%
CC(C)NC(=O)CSc1nc2[nH]ncc2c(=O)[nH]1 | 9.74%
CC(=O)N1CCOc2ccc(S(=O)(=O)Nc3cccc(C)c3)cc21 | 8.06%
CCN1CCN(CCCNC(=O)c2ccc3c(c2)NC(=O)c2ccccc2S3)CC1 | 5.02%
CC(=O)c1cccc(NC(=O)NNC(=O)c2ccc(-c3ccccc3)cc2)c1 | 3.75%
CN1C(=O)CC(Nc2cccc3cccc(N)c23)C1=O (stereo not drawn) | 7.47%
CC1=NN2C(=N)/C(=C\c3cc(C)n(-c4ccccc4)c3C)C(=O)N=C2S1 | 3.04%
CCC(C)c1ccc(-c2cc(C(=O)OCC(=O)Nc3cc(C)on3)c3ccccc3n2)cc1 (stereo not drawn) | 12.4%
NC(=O)CC(NC(=O)Cc1ccc(Br)cc1)c1ccc(N2CCN(c3ccc(F)cc3)CC2)c([N+](=O)[O-])c1 (stereo not drawn) | -2.34%
CCN1CCN(CCNC(=O)c2ccc3c(c2)N(Cc2ccc(F)cc2)C(=O)/C(=C/c2ccccc2)S3)CC1 | -2.59%
CCOC(=O)c1sc(-c2ccccc2)cc1NC(=O)c1ccc(S(=O)(=O)N(CCOC)CCOC)cc1 | 9.24%
CCOC(=O)C1=C(COC(=O)c2cc(Br)c(Br)s2)NC(=O)NC1C (stereo not drawn) | 6.29%
CCCNC(=O)CS(=O)(=O)c1ccccc1 | 0.126%
CCN1CCCC1CNCc1cccc(OC)c1OCc1ccc(F)cc1.Cl (stereo not drawn) | -8.28%
CC(=O)Nc1ccc(NCN2C(=O)[C@@H]3[C@H]4CC[C@H](C4)[C@@H]3C2=O)cc1 | 1.6%
COC(=O)c1ccc(Cn2nc(C(F)(F)F)cc2C)cc1 | 9.1%

SMILES | hERG current change (%, negative = inhibition) at 1uM
CCCCOc1ccc(NC(=O)CSc2cccc3cccnc23)cc1 | 0.239%
CCOC(=O)c1ccc(NC(=S)NNC(=O)COC)cc1 | 13.8%
COc1ccccc1N1CCN(/N=C/C=C/c2ccccc2[N+](=O)[O-])CC1 | 10.2%
CC(=O)OC(C(=O)NCCc1ccccc1)c1cccnc1 (stereo not drawn) | 5.94%
CCn1nc(C)c(/C=N/NC(=S)Nc2ccc(Cl)cc2Cl)c1C | -16%
COc1ccc(CC(=O)N/N=C/c2sccc2C)cc1 | 17%
O=S(=O)(Nc1ccc2ccccc2c1)c1ccccc1 | 14.1%
CC(=O)Oc1cccc(N2C(=O)c3cccc4c([N+](=O)[O-])ccc(c34)C2=O)c1 | 13.4%
COc1ccccc1-c1cc(N)n(S(=O)(=O)c2cccc3nsnc23)n1 | 18.4%
CCC1CCCCN1S(=O)(=O)c1ccc(NC(=O)c2cccnc2)cc1 (stereo not drawn) | 7.93%
CCc1cc(=O)oc2cc(C)cc(OCC(=O)NCCCn3ccnc3)c12 | -7.42%
CCOC(=O)/C(C#N)=C1\C(=O)N(Cc2ccccc2)c2ccccc21 | 8.56%
COCCNC(=O)c1ccc(N2CC3CC(C2)c2cccc(=O)n2C3)c(NC(=O)c2cc(OC)cc(OC)c2)c1 (stereo not drawn) | 14.6%
Cc1ccc(C)c(N2CCN(C(=O)C3CCCCN3S(=O)(=O)c3ccc(F)cc3)CC2)c1 (stereo not drawn) | 3.42%
CCCCn1nnc(NC(=O)c2ccc(-c3cccc(Cl)c3)o2)n1 | -16.2%
CCc1ccc(C(=O)c2ccccc2C(=O)O)s1 | 19%
CSc1nc2c(c(=O)[nH]1)C(c1ccccc1Cl)CC(=O)N2 (stereo not drawn) | 9.59%
Cc1ccccc1-[n+]1c(-c2ccccc2)cc(-c2ccccc2)cc1-c1ccccc1.[O-][Cl+3]([O-])([O-])[O-] | -55.8%
O=S(=O)(c1ccc(N2CCCC2)nc1)N1CCOCC1 | 2.26%
Cc1cccc(C(=O)Nc2ccccc2N2CCN(c3ccc(F)cc3)CC2)c1 | 13.7%
COc1ccc(NC(=O)c2cccc(OS(=O)(=O)N(C)C)c2)cc1 | 10.1%
COC(=O)c1sccc1NC(=O)Cn1nnc(-c2ccccc2C)n1 | 12%

SMILES | hERG current change (%, negative = inhibition) at 1uM
CCOc1ccc(NC(=O)C/C(C)=N/NC(=O)Cc2ccc(Cl)cc2)cc1 | 11.2%
COc1ccc(-n2c(=O)[nH]cc(C(=O)N3CCc4ccccc43)c2=O)cc1 | 19.7%
N=C1C(=O)OCC1c1cc(Cl)ccc1NC(=O)Nc1ccccc1 (stereo not drawn) | 9.53%
COc1cc2c(cc1OC)C(SC)=NC(C)(C)C2 | 4.12%
O=C(CSc1nnc(Cc2cccs2)n1Cc1ccco1)Nc1ccc(Br)cc1 | 13.6%
COc1ccc(-c2cc(C(=O)N/N=C(\C)c3cccnc3)c3ccccc3n2)cc1 | 6.38%
CC1CCCN(C2(O)C(=O)Nc3c(C(F)(F)F)cccc32)C1 (stereo not drawn) | 14.4%
CC(C)(C)c1nc2sc3c(c2c(=O)o1)CCCC3 | 16.4%
COc1cc(OC)c(C#N)c(S(=O)Cc2ccccc2)c1 (stereo not drawn) | 9.56%
O=c1c2sccc2n(Cc2cccc(F)c2)c(=O)n1-c1ccc(F)cc1 | 4.2%
Fc1c(F)c(F)c(NC2=NCCCCC2)c(F)c1F | 11.8%
c1cc2c(cn1)cnc1cscc12 | 9.4%
CCCCN(C(=O)CCCc1nc2ccccc2s1)c1c(N)n(CC(C)C)c(=O)[nH]c1=O | -2.09%
CCn1c(SCC(=O)N2CC(=O)Nc3ccccc32)nnc1-c1ccoc1C | 18.4%
Cc1ccc(NC(=O)c2nnn(-c3cc(C)cc(C)c3)c2N)cc1 | 14.1%
CC(=O)c1cccc(N2C(=O)C3C4CCC(C4=C(C)C)C3C2=O)c1 (stereo not drawn) | 22.7%
O=C(c1ccco1)N1CCN(c2nc(C3CC3)nc3sc4c(c23)CCCC4)CC1 | 5.16%
CC1CCN(c2ccc(NC(=O)c3ccc([N+](=O)[O-])o3)cc2)CC1.Cl | 1.39%
C=CCN(CC=C)C(=O)Nc1ccc2nc(C)sc2c1 | 10%
CC(=O)O.NCc1ccc(S(N)(=O)=O)cc1 | 18.4%
Cc1ccc(O)c(C(=O)c2cnc3onc(-c4ccc(F)cc4)c3c2)c1 | 1.82%
COC(=O)CN(C)C(=O)c1ccc(OC)c(OC2CCN(C(C)C)CC2)c1 | 12.2%

SMILES | hERG current change (%, negative = inhibition) at 1uM
O=C(NC(=S)Nc1ccc(N2CCOCC2)c(Cl)c1)c1cncc(Br)c1 | 8.18%
COc1ccc(CC(=O)N(Cc2ccccc2)c2ccc(C)cc2)cc1OC | -1.64%
O=C(O)c1cc(NC(=O)c2ccc([N+](=O)[O-])cc2)cc(NC(=O)c2ccc([N+](=O)[O-])cc2)c1 | 7.26%
O=C(N/N=C/c1cccs1)c1ccc2ncccc2c1 | 5.95%
O=C(Cn1nnc(-c2ccccc2)n1)N/N=C/c1cc([N+](=O)[O-])c(Cl)cc1Cl | 11.8%
CCC1(c2ccccc2)NC(=S)N(c2ccc(C)c(C)c2)N1 (stereo not drawn) | 19.2%
CCN(CC)CCCNC(=O)c1cn(-c2cccc(OC)c2)c(=O)c2ccccc12 | -17.2%
Cc1[nH]c2ccc(C(=O)OC(C)C(=O)N(C)c3ccccc3)cc2c1C (stereo not drawn) | 3.12%
CCC(=O)N(Cc1cc2ccccc2[nH]c1=O)c1ccccc1OC | 9.38%
O=C(/C=C/c1ccco1)Nc1cccc(S(=O)(=O)N2CCOCC2)c1 | -5.85%
O=C(Nc1ccccc1)c1c(O)[nH]c(=S)[nH]c1=O | 14.2%
Cc1c(O)ccc2c(CN3CCN(CCO)CC3)cc(=O)oc12 | 9.31%
CC(=O)Nc1nnc(CCS(=O)(=O)c2ccc(C)c(C)c2)s1 | 11.7%
CCOC(=O)c1cnc(SCC(=O)Nc2ccc(NC(C)=O)c(OC)c2)nc1N | 15%
CC(CNC(=O)COC(=O)c1cccs1)c1ccccc1 (stereo not drawn) | 11.2%
Brc1ccc(CSc2nnc(-c3cccnc3)o2)cc1 | 6.81%
CC(C)(CN1CCN(C(c2ccccc2)c2ccccc2)CC1)NS(=O)(=O)c1ccccc1 | 9.37%
COC(=O)c1ccc(NC(=O)CSc2nnc(CNc3ccc(OC)cc3)n2C)cc1 | 17.6%
C[C@H](CCCC/C=C/C(=O)O)O[C@@H]1O[C@@H](C)[C@H](O)C[C@H]1O | 5.13%
Cc1ccc(/C=C/C(=O)O)cc1S(=O)(=O)NC1CCS(=O)(=O)C1 (stereo not drawn) | 16.5%
CCN(CC)Cc1c(C(=O)OC)nnn1-c1nonc1N | 14.7%
